For assay [1], the target named is T1, Flag-BGLF4 (Epstein-Barr virus protein kinase BGLF4) (Epstein-Barr virus) (UniProt P13288).
T1 sequence: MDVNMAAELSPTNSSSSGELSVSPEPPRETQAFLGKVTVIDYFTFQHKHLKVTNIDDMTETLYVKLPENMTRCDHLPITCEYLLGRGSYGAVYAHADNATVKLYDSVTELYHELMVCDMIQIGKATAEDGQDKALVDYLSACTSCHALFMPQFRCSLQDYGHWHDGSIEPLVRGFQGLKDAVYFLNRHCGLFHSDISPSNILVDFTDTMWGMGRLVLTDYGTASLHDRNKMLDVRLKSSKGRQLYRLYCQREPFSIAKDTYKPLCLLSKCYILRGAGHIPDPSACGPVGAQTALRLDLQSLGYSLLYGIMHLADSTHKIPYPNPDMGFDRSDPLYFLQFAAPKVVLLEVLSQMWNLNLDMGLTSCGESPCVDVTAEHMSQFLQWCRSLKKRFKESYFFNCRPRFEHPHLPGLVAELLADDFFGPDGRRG
Kind of assay: co-IP; Flag immunoprecipitation from extracts of cells co-transfected with V5-PP1α and Flag-BGLF4, Flag-TIP60 or Flag-vector; blot for PP1α.

The chains behind the UniProt entries cited, without tags or fusion partners.
UniProt Q92993: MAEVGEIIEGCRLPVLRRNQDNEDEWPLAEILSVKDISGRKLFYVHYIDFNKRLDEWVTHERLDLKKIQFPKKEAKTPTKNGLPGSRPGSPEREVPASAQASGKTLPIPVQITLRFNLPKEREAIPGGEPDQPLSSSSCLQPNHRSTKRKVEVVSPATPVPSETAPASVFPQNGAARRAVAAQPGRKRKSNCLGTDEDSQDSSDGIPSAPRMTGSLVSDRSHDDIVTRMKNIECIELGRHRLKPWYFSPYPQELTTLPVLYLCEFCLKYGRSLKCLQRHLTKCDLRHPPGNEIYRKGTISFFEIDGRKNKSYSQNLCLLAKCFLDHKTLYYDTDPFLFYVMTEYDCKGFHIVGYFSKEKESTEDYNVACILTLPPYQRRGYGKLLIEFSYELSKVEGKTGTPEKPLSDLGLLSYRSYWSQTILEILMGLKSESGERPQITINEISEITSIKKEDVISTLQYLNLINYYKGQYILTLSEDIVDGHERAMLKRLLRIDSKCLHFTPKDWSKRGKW
UniProt Q12834: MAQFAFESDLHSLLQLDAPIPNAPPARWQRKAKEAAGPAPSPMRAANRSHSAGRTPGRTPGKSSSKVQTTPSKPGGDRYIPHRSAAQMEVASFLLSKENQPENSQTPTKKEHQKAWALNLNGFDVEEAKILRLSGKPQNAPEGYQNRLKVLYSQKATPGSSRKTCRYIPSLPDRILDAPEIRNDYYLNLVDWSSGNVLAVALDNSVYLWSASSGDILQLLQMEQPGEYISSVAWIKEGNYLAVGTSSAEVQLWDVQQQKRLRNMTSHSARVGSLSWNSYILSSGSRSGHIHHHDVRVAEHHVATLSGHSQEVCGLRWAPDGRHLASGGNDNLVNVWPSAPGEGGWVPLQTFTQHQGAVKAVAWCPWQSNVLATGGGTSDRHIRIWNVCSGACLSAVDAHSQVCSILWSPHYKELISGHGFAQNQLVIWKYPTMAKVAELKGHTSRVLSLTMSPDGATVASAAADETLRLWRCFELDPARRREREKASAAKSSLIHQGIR
UniProt O43683: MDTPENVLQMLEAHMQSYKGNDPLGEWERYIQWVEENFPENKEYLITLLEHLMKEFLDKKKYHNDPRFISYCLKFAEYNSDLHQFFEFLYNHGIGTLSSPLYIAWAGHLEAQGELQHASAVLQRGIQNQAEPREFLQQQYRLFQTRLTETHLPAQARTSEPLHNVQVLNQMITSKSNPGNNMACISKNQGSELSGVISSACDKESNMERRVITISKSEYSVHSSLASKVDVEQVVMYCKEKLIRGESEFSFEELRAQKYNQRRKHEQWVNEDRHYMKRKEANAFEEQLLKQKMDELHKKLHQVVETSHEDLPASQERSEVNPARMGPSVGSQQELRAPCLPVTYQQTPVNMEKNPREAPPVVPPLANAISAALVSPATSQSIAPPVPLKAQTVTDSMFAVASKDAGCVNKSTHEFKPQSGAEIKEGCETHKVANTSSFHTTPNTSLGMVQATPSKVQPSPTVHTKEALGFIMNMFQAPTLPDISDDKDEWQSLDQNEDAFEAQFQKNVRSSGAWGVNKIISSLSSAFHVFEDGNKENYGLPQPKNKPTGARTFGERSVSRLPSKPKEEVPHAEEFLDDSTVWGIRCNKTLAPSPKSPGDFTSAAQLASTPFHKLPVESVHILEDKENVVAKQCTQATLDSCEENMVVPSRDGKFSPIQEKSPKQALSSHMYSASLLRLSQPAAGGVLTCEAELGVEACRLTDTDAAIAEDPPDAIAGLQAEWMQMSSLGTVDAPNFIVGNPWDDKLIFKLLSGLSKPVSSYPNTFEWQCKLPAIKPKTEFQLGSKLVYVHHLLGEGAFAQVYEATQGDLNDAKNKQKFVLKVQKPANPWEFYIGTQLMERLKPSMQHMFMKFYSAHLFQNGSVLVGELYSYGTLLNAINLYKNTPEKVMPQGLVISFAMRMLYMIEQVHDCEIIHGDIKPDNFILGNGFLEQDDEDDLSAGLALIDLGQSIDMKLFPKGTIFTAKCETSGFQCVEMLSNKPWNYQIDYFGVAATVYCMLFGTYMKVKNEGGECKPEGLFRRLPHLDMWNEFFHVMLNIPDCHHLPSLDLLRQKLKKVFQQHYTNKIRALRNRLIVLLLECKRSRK
UniProt P62136: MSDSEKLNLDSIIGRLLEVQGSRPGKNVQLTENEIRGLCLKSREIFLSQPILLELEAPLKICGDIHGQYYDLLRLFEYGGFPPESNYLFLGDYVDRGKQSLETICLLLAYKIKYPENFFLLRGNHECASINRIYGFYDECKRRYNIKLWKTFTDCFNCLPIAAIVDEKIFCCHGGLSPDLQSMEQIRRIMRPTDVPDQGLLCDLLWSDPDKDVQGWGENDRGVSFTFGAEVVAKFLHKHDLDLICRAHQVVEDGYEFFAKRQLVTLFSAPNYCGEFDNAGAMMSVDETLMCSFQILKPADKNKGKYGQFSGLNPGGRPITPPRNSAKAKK

Assay [2] concerns the target Flag-TIP60 (UniProt Q92993). The assay is described as above.
The target in assay [3] is HA-cdc20 (UniProt Q12834). The assay is described as follows: co-IP; BGLF4 co-transfected with MPS1, BUB1, CDC20 or p31^Comet in 293T cells; lysates immunoprecipitated with anti-HA, anti-Myc or IgG control; blots with anti-BGLF4, anti-HA, anti-Flag or anti-Myc.
Assay [4] has as its target T2, myc p31^Comet (MAD2L1BP) (UniProt Q15013).
T2 sequence: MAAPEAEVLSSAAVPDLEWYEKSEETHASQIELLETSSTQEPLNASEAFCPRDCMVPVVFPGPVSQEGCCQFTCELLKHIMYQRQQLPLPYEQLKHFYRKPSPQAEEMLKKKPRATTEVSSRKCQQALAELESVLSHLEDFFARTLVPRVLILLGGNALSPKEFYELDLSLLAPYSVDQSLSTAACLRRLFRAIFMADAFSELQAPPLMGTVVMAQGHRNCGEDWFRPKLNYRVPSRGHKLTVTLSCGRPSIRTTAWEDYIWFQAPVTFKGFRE
The assay is described as above.

For assay [5], the target named is Flag-BUB1 (UniProt O43683). Described as above.
For assay [6], the target named is T3, Flag-MPS1 (UniProt P33981).
T3 sequence: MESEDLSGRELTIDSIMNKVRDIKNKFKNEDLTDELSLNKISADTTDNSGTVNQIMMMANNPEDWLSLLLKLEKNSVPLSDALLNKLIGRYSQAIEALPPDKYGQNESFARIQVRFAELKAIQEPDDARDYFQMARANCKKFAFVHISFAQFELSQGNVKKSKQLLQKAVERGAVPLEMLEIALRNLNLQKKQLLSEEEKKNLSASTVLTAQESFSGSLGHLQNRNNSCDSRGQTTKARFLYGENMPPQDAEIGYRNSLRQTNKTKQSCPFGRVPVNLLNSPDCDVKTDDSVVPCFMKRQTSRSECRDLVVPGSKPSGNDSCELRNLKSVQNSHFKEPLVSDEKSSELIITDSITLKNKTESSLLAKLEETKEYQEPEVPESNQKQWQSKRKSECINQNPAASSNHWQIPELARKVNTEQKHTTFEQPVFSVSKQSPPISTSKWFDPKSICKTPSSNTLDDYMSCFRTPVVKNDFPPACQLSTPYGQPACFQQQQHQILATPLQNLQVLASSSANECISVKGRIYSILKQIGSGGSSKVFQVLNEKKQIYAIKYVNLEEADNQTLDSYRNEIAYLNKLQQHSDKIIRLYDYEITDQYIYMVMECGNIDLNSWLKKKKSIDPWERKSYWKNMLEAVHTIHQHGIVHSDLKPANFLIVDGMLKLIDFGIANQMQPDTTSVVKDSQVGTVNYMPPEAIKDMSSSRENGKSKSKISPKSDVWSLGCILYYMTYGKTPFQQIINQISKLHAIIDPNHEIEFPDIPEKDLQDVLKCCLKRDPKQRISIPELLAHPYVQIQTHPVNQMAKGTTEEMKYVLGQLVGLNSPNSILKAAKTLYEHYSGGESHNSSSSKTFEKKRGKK
Described as above.

No constants are given. Whether binding was seen depends on the method and setting. In cells and extracts the contact can be indirect. Some entries that bind do so weakly or less than the wild type. For part of these data: Where a sequence is shown, tags or fusion partners need not be part of it.

As to “V5-PP1α (protein phosphatase 1 alpha) (from UniProt P62136 1-330) (enzyme)”, the results for the binding entry in assay [1] and in assay [2] were “binds weakly” and “binds”, respectively.

B1: BGLF4 (as co-transfected in 293T cells, Fig 6B) (enzyme, UniProt P13288 1-429)
chain: MDVNMAAELSPTNSSSSGELSVSPEPPRETQAFLGKVTVIDYFTFQHKHLKVTNIDDMTETLYVKLPENMTRCDHLPITCEYLLGRGSYGAVYAHADNATVKLYDSVTELYHELMVCDMIQIGKATAEDGQDKALVDYLSACTSCHALFMPQFRCSLQDYGHWHDGSIEPLVRGFQGLKDAVYFLNRHCGLFHSDISPSNILVDFTDTMWGMGRLVLTDYGTASLHDRNKMLDVRLKSSKGRQLYRLYCQREPFSIAKDTYKPLCLLSKCYILRGAGHIPDPSACGPVGAQTALRLDLQSLGYSLLYGIMHLADSTHKIPYPNPDMGFDRSDPLYFLQFAAPKVVLLEVLSQMWNLNLDMGLTSCGESPCVDVTAEHMSQFLQWCRSLKKRFKESYFFNCRPRFEHPHLPGLVAELLADDFFGPDGRRG
On to B1, for which the binding result in assay [3] is reported as “binds”; in assay [4] it was “binds”; in assay [5], “no binding”; in assay [6], “binds”.

Values taken from publication PMC4699913.
